Further values from the same series stand in other lists.
How the values were obtained:
[1] = tested on: Anopheles gambiae (target-site-resistant and metabolic-resistant strain: RSPH); experiment: Glazed tile contact test, knock-down; assay type: in vivo
Method: (§1) To produce a suitable preparation Transfluthrin was dissolved in acetone. The active compound solution was pipetted onto a glazed tile and, after drying, adult mosquitoes of the species: • Anopheles gambiae (target-site-resistant and metabolic-resistant strain: RSPH), • Anopheles gambiae (target-site-resitant and metabolic-resistant strain: Tiassalé), • Anopheles gambiae (tar et-site-resitant and metabolic-resistant strain: Akron), • Anopheles gambiae (target-site-resistant strain: VK7), and • Anopheles funestus (metabolic-resistant strain FUMOZ-R) were placed onto the treated tile (each strain was tested on separate tiles). The exposition time was 30 minutes.
(§2) 0.25 hours, 0.5 hours, 1 hour, 2 hour, 3 hour, 4 hour and 24 hours after contact to the treated surface, the knock-down proportion of the test animals in % was determined. Here, 100% (effect) means that all mosquitoes have been killed; 0% (effect) means that none of the mosquitoes have been killed.
Similarly as outlined in example 2 for Transfluthrin, Metofluthrin efficacy was assessed against • Anopheles gambiae (target-site-resistant and metabolic-resistant strain: RSPH), • Anopheles funestus (metabolic-resistant strain FUMOZ-R), and • Culex quinquefasciatus (metabolic-resistant to DDT; strain P00), with the results shown in Tables 10 to 12. 0.25 hours, 0.5 hours, 1 hour, 2 hour, 3 hour, 4 hour and 24 hours after contact to the treated surface, the knock-down proportion of the test animals in % is depicted in Tables 10 to 12. 100% (effect) means that all mosquitoes have been killed; 0% (effect) means that none of the mosquitoes have been killed.
Similarly as outlined in example 2 for Transfluthrin, Metofluthrin efficacy was assessed against • Anopheles gambiae (target-site-resistant and metabolic-resistant strain: RSPH), • Anopheles funestus (metabolic-resistant strain FUMOZ-R), and with the results shown in Tables […]. 0.25 hours, 0.5 hours, 1 hour, 2 hour and 3 hours after contact to the treated surface, the knock-down proportion of the test animals in % is depicted in Tables 13 to 14. 100% (effect) means that all mosquitoes have been killed; 0% (effect) means that none of the mosquitoes have been killed.

[2] = tested on: Anopheles gambiae (strain: Akron); experiment: Glazed tile contact test, knock-down; assay type: in vivo
Method: as §1, §2

## CC1(C)[C@H](C=C(Cl)Cl)[C@H]1C(=O)OCc1c(F)c(F)cc(F)c1F [Transfluthrin, (1R,3S)-3-(2,2-Dichlorovinyl)-2,2-dimethyl-1-cyclopropanecarboxylic acid (2,3,5,6-tetrafluorophenyl)methyl ester]
[1]; 0.32 g/ha, 0.25 h after contact
  Effect %: 10%
[1]; 0.32 g/ha, 0.5 h after contact
  Effect %: 25%
[1]; 0.32 g/ha, 1 h after contact
  Effect %: 25%
[1]; 0.32 g/ha, 2 h after contact
  Effect %: 35%
[1]; 0.32 g/ha, 3 h after contact
  Effect %: 55%
[1]; 0.32 g/ha, 4 h after contact
  Effect %: 40%
[1]; 0.32 g/ha, 24 h after contact
  Effect %: 60%
[1]; 1.6 g/ha, 0.25 h after contact
  Effect %: 100%
[1]; 1.6 g/ha, 0.5 h after contact
  Effect %: 100%
[1]; 1.6 g/ha, 1 h after contact
  Effect %: 100%
[1]; 1.6 g/ha, 2 h after contact
  Effect %: 100%
[1]; 1.6 g/ha, 3 h after contact
  Effect %: 100%
[1]; 1.6 g/ha, 4 h after contact
  Effect %: 100%
[1]; 1.6 g/ha, 24 h after contact
  Effect %: 100%
[1]; 8 g/ha, 0.25 h after contact
  Effect %: 100%
[1]; 8 g/ha, 0.5 h after contact
  Effect %: 100%
[1]; 8 g/ha, 1 h after contact
  Effect %: 100%
[1]; 8 g/ha, 2 h after contact
  Effect %: 100%
[1]; 8 g/ha, 3 h after contact
  Effect %: 100%
[1]; 8 g/ha, 4 h after contact
  Effect %: 100%
[1]; 8 g/ha, 24 h after contact
  Effect %: 100%
[1]; 40 g/ha, 0.25 h after contact
  Effect %: 100%
[1]; 40 g/ha, 0.5 h after contact
  Effect %: 100%
[1]; 40 g/ha, 1 h after contact
  Effect %: 100%
[1]; 40 g/ha, 2 h after contact
  Effect %: 100%
[1]; 40 g/ha, 3 h after contact
  Effect %: 100%
[1]; 40 g/ha, 4 h after contact
  Effect %: 100%
[1]; 40 g/ha, 24 h after contact
  Effect %: 100%
[1]; 200 g/ha, 0.25 h after contact
  Effect %: 100%
[1]; 200 g/ha, 0.5 h after contact
  Effect %: 100%
[1]; 200 g/ha, 1 h after contact
  Effect %: 100%
[1]; 200 g/ha, 2 h after contact
  Effect %: 100%
[1]; 200 g/ha, 3 h after contact
  Effect %: 100%
[1]; 200 g/ha, 4 h after contact
  Effect %: 100%
[1]; 200 g/ha, 24 h after contact
  Effect %: 100%
[2]; 1.6 g/ha, 0.25 h after contact
  Effect %: 5%
[2]; 1.6 g/ha, 0.5 h after contact
  Effect %: 15%
[2]; 1.6 g/ha, 1 h after contact
  Effect %: 5%
[2]; 1.6 g/ha, 2 h after contact
  Effect %: 10%
[2]; 1.6 g/ha, 3 h after contact
  Effect %: 10%
[2]; 1.6 g/ha, 4 h after contact
  Effect %: 5%
[2]; 1.6 g/ha, 24 h after contact
  Effect %: 15%
[2]; 8 g/ha, 0.25 h after contact
  Effect %: 90%
[2]; 8 g/ha, 0.5 h after contact
  Effect %: 100%
[2]; 8 g/ha, 1 h after contact
  Effect %: 100%
[2]; 8 g/ha, 2 h after contact
  Effect %: 95%
[2]; 8 g/ha, 3 h after contact
  Effect %: 90%
[2]; 8 g/ha, 4 h after contact
  Effect %: 90%
[2]; 8 g/ha, 24 h after contact
  Effect %: 75%
[2]; 40 g/ha, 0.25 h after contact
  Effect %: 100%
[2]; 40 g/ha, 0.5 h after contact
  Effect %: 100%
[2]; 40 g/ha, 1 h after contact
  Effect %: 100%
[2]; 40 g/ha, 2 h after contact
  Effect %: 100%
[2]; 40 g/ha, 3 h after contact
  Effect %: 100%
[2]; 40 g/ha, 4 h after contact
  Effect %: 100%
[2]; 40 g/ha, 24 h after contact
  Effect %: 100%
[2]; 200 g/ha, 1 h after contact
  Effect %: 100%
[2]; 200 g/ha, 2 h after contact
  Effect %: 100%
[2]; 200 g/ha, 3 h after contact
  Effect %: 100%
[2]; 200 g/ha, 4 h after contact
  Effect %: 100%
[2]; 200 g/ha, 24 h after contact
  Effect %: 100%
